Assay results as given in PubChem BioAssay AID588342 (National Center for Advancing Translational Sciences (NCATS), 2011).
Values joined by “and” are separate entries in the source; they are usually repeats but may differ in a detail not shown here. Equal entries are not always repeated. In all, about 360,000 compounds went through this assay and about 25,000 (6.9%) were called active. Inconclusive results, whose numbers are uncertain, are shown with a selection of clear calls. Calls come from the whole dose curve; as a rule, active = well fitted inhibition curve with a large enough effect; inconclusive = small, poorly fitted or top-dose-only effect; inactive = flat fitted curve, though single readings scatter. A potency beside an inconclusive call is a rough fit, not a confirmed value.

What follows are compounds tested against Luciferin 4-monooxygenase (Photinus pyralis) (UniProt P08659) (assay: qHTS profiling assay for firefly luciferase inhibitor/activator using purifed enzyme and Km concentrations of substrates (counterscreen for miR-21 project)). Details: purified FLuc, luminescence inhibition; activity change, negative = inhibition: at 57.5 µM (top of the series).
Chain of UniProt P08659 (P08659 whole entry, looked up): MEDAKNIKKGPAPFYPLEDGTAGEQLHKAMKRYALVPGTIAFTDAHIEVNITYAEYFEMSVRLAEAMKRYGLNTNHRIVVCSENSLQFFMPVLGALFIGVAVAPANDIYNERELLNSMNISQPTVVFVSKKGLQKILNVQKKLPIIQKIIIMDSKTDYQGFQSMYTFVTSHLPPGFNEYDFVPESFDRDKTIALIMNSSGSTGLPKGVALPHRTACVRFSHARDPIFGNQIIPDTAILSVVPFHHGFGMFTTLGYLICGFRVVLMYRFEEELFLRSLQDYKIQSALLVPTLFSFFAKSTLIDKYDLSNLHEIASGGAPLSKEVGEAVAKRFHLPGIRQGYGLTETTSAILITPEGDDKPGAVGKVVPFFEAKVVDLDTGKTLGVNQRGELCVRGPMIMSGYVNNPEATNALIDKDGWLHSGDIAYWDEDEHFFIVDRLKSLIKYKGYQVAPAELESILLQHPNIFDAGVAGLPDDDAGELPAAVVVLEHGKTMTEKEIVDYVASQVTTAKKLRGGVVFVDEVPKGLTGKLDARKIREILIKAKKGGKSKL
Method in brief: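 Purified P. pyralis luciferase (10nM final) with 10uM D-luciferin and 10uM ATP (Km levels) in 50mM Tris acetate pH 7.5, 10mM Mg acetate, 0.01% Tween-20, 0.05% BSA; qHTS 6-point titration, ~60 µM downward; luminescence read.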
Note: nearly all actives have a fitted effect of over 55% in size.
Potency is the fitted concentration of half-maximal effect; tags give direction and shape of the fitted curve.
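Throughout, for activity change, negative = inhibition: plate controls were vehicle for no effect and reference inhibitor for full effect.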

Question: Which Potency does the source give for O=C(c1cc2cc(F)ccc2[nH]1)N1CCc2ccccc2C1 here?
Answer: inconclusive: 23.9 µM [inhibitor, partial curve]

Question: For O=C(NC1CCCCCCC1)c1cccc(Cl)c1, which Potency is on record?
Answer: active: 15.1 µM

Question: With COc1cccc(NC(=O)CN(C)C(=O)CCCc2nc3ccccc3s2)c1 as the compound, how does the Potency read?
Answer: inconclusive: 30.1 µM [inhibitor, partial curve, poor fit]

Question: With COc1ccc(/C=N/OCC(=O)OCC(=O)N(C)c2ccccc2)cc1 as the compound, how does the Potency read?
Answer: inconclusive: 23.9 µM [inhibitor, single point]

Question: Which Potency does the source give for CCOC(=O)N1CCC(Nc2c(Nc3ccc(C)c(C)c3)c(=O)c2=O)CC1 here?
Answer: inconclusive: 26.9 µM [inhibitor, partial curve, poor fit]

Question: With COc1ccccc1OCCSc1nc2ccccc2n1CCO as the compound, how does the Potency read?
Answer: active: 16.9 µM

Question: Which Potency does the source give for O=C(COC(=O)c1ccccc1SCC(=O)N1CCCC1)NC1CCCCC1 here?
Answer: inconclusive: 37.9 µM [inhibitor, partial curve, poor fit]

Question: CCc1nc2oc3ccccc3c(=O)c2cc1C(=O)OC was tested. Which Potency did it give?
Answer: active: 13.5 µM

Question: For O=C(O)Cc1sc(-c2ccccc2)nc1-c1ccccc1, which Potency is on record?
Answer: inconclusive: 23.9 µM [inhibitor, single point]

Question: With COC(=O)c1c(C)nc(C)c2c(=O)oc3ccccc3c12 as the compound, how does the Potency read?
Answer: inconclusive: 16.9 µM [inhibitor, partial curve]

Question: For CSC1=N/C(=C/c2cccnc2)C(=O)N1Cc1ccc(Cl)cc1, which Potency is on record?
Answer: inconclusive: 37.9 µM [inhibitor, partial curve, poor fit]

Question: Which “activity change, negative = inhibition” value does the source give for Cc1cc(C)c(NC(=O)CSc2nc(=O)n(Cc3ccco3)c3c2CCC3)c(C)c1 here?
Answer: inactive: -9.97%

Question: CC(C)(C)C(=O)Nc1cccc(C(=O)OCc2cc(=O)n3nc(C4CCCCC4)sc3n2)c1 was tested. Which “activity change, negative = inhibition” value did it give?
Answer: inactive: -2.4%

Question: Which Potency does the source give for N#C/C(=C\c1ccc(-c2cc(Cl)ccc2Cl)o1)C(=O)Nc1ccccc1C(=O)O here?
Answer: active: 4.26 µM

Question: How did the Potency turn out when CCN=C1SC(CC(=O)Nc2ccc3c(c2)OCO3)C(=O)N1CC (centres undefined) was run?
Answer: inconclusive: 0.006 µM [inhibitor, partial curve, poor fit]

Question: How did the Potency turn out when CCCCCN(C(=O)CCC(=O)OCC(=O)Nc1ccc(C)cc1F)c1c(N)n(CCCC)c(=O)[nH]c1=O was run?
Answer: inconclusive: 23.9 µM [inhibitor, single point]

Question: For CC(C)(C)C(=O)Nc1cccc(-c2nc3ccccc3[nH]2)c1, which Potency is on record?
Answer: active: 15.1 µM

Question: Which “activity change, negative = inhibition” value does the source give for C/C(=N\NC(=O)COc1ccccc1-c1ccccc1)c1ccc(O)cc1O here?
Answer: inactive: 0.923%

Question: For O=C1N/C(=N/N=C/c2ccc(F)cc2)SC1c1ccccc1 (centres undefined), which Potency is on record?
Answer: active: 15.1 µM

Question: Which Potency does the source give for CCOc1cc(/C=N/NC(=O)c2ccc(NC(=O)C3CC3)cc2)ccc1O here?
Answer: inconclusive: 12 µM [inhibitor, partial curve, poor fit]

Question: With COc1cccc(CNC(=O)CCNS(=O)(=O)c2ccc3c(c2)oc(=O)n3C)c1 as the compound, how does the Potency read?
Answer: inactive

Question: Which Potency does the source give for O=C(O)Cc1sc(N/N=C\c2ccncc2)nc1-c1ccccc1 here?
Answer: active: 15.1 µM

Question: For O=C(CC1S/C(=N/N=C/c2cccnc2)NC1=O)Nc1ccccc1 (centres undefined), which Potency is on record?
Answer: inconclusive: 26.9 µM [inhibitor, single point]

Question: Which “activity change, negative = inhibition” value does the source give for Cc1cnc(NC(=O)c2c(-c3ccccc3)noc2C)s1 here?
Answer: inactive: 3.96%

Question: How did the Potency turn out when COc1ccccc1-c1cc(C(=O)NCc2ccccc2)no1 was run?
Answer: active: 23.9 µM

Question: With COc1ccc(Nc2ncnc3sc(-c4ccccc4)cc23)cc1OC as the compound, how does the Potency read?
Answer: active: 12 µM

Question: O=C(Nc1cccc(S(=O)(=O)NC2=NCCC2)c1)c1cc(-c2ccco2)nc2ccccc12 was tested. Which Potency did it give?
Answer: inconclusive: 30.1 µM [inhibitor, single point]

Question: Which “activity change, negative = inhibition” value does the source give for CCOC(=O)c1c(NC(=O)COc2ccc(F)cc2)sc2c1CCC(C)C2 (centres undefined) here?
Answer: inactive: -0.605%

Question: With O=C1/C(=C/c2ccccc2)Oc2cc(OC(=O)N3CCOCC3)ccc21 as the compound, how does the Potency read?
Answer: active: 13.5 µM

Question: For Cc1nn(C)c(C(=O)NNC(=S)NC2CCCCC2)c1Br, which Potency is on record?
Answer: inconclusive: 26.9 µM [inhibitor, single point]

Question: CC(C)(C)C(=O)/C=C(\N)c1ccccn1 was tested. Which “activity change, negative = inhibition” value did it give?
Answer: inactive: -8.18%

Question: For CN1CCC(N(C)C(=S)NC(=O)c2cc(-c3cccc(Br)c3)nc3ccccc23)CC1, which Potency is on record?
Answer: inconclusive: 26.9 µM [inhibitor, single point]

Question: CCOC(=O)c1c(C)nc2c(C#N)cnn2c1C was tested. Which “activity change, negative = inhibition” value did it give?
Answer: inactive: 4.18%

Question: Cc1cc(C)n(CCc2nc(-c3cc4ccccc4o3)cs2)n1 was tested. Which Potency did it give?
Answer: active: 16.9 µM

Question: With COc1ccccc1Oc1ccc(NC(=O)c2ccccc2C)cc1 as the compound, how does the Potency read?
Answer: inconclusive: 21.3 µM [inhibitor, partial curve, poor fit]

Question: With Cc1cc(Nc2ncc(Cl)cc2Cl)n[nH]1 as the compound, how does the Potency read?
Answer: inconclusive: 30.1 µM [inhibitor, partial curve, poor fit]

Question: CC1Cn2cc(C(=O)Nc3cccc(C(F)(F)F)c3)c(=O)c3c(Cl)ccc(c32)O1 (centres undefined) was tested. Which “activity change, negative = inhibition” value did it give?
Answer: inactive: 2.75%

Question: Which “activity change, negative = inhibition” value does the source give for CCC/C(=N\NC(=O)C1CCCC1)c1ccccc1 here?
Answer: inactive: 0.464%

Question: With O=C(COC(=O)CC1Sc2ccccc2NC1=O)NCc1ccccc1 (centres undefined) as the compound, how does the “activity change, negative = inhibition” value read?
Answer: inactive: 3.44%

Question: Which Potency does the source give for Cc1oc(C(C)(C)C)cc1C(=O)Nc1cccc(/C=C\C(=O)O)c1 here?
Answer: active: 8.49 µM

Question: For CCc1nnc(NC(=O)CSc2ccc(-c3ccc(C)cc3)nn2)s1, which Potency is on record?
Answer: active: 2.39 µM

Question: With Cc1ccc(-c2noc(C3CCN(S(C)(=O)=O)CC3)n2)o1 as the compound, how does the Potency read?
Answer: inconclusive: 21.3 µM [inhibitor, single point]

Question: With O=C(CN1CCN(c2ccccn2)CC1)N1c2ccccc2CCc2ccccc21 as the compound, how does the “activity change, negative = inhibition” value read?
Answer: inactive: 3.42%

Question: For COc1ccc(-c2cc(C(=O)Nc3cccc(C(C)=O)c3)no2)cc1, which Potency is on record?
Answer: inconclusive: 0.953 µM [inhibitor, full curve, poor fit]

Question: Which Potency does the source give for Cc1ccc(OCCc2csc(N)n2)cc1 here?
Answer: inconclusive: 37.9 µM [inhibitor, partial curve, poor fit]

Question: COc1ccc(N2CCN(C3CCCN(C(=O)C4=C(C)OCCO4)C3)CC2)cc1 (centres undefined) was tested. Which “activity change, negative = inhibition” value did it give?
Answer: inactive: 14.4%

Question: How did the Potency turn out when O=C(NCCCn1ccnc1)c1cc(-c2cccs2)on1 was run?
Answer: inconclusive: 23.9 µM [inhibitor, single point]

Question: For Nc1ccccc1N=c1ssnc1Cl, which Potency is on record?
Answer: inconclusive: 16.9 µM [inhibitor, partial curve]

Question: Which Potency does the source give for Cc1ccc(-c2cc(Cc3ccc(N(C)C)cc3)c(=O)[nH]n2)cc1 here?
Answer: inconclusive: 37.9 µM [inhibitor, partial curve, poor fit]

Question: How did the Potency turn out when CC1(C)Cc2nc3nc(SCC(=O)Nc4ccccc4)nc(N)c3cc2CO1 was run?
Answer: inconclusive: 3.01 µM [inhibitor, full curve]

Question: How did the Potency turn out when N=c1oc2ccc(Br)cc2cc1C(=O)NCc1ccc(F)cc1 was run?
Answer: inconclusive: 23.9 µM [inhibitor, single point]

Question: COc1cccc2sc(N(Cc3cccnc3)C(=O)C3COc4ccccc4O3)nc12 (centres undefined) was tested. Which “activity change, negative = inhibition” value did it give?
Answer: inactive: -5.63%

Question: With CCOC(=O)c1c(CSc2cccs2)n(C)c2cc(Br)c(O)c(CN(C)C)c12 as the compound, how does the “activity change, negative = inhibition” value read?
Answer: inactive: -16.6%

Question: With O=C(Nc1sc2c(c1C(=O)NCCCO)CCCC2)c1ccccc1 as the compound, how does the “activity change, negative = inhibition” value read?
Answer: inactive: -11.4%

Question: With Cc1ccc(/C=N/Nc2ccc(Cl)nn2)cc1 as the compound, how does the Potency read?
Answer: inconclusive: 1.9 µM [inhibitor, full curve]

Question: How did the Potency turn out when Cc1ccc(Nc2nc3ccccc3c3nncn23)cc1C was run?
Answer: inconclusive: 12 µM [inhibitor, partial curve]

Question: How did the Potency turn out when COc1ccc2nc(NC(=O)CSCc3c(C)noc3C)sc2c1 was run?
Answer: inconclusive: 21.3 µM [inhibitor, partial curve, poor fit]

Question: With Cc1nc(-c2coc3cc(O)c(C)cc3c2=O)cs1 as the compound, how does the Potency read?
Answer: active: 0.953 µM

Question: CCn1c(C)cc(/C=C2/NC(=O)N(c3ccccc3)C2=O)c1C was tested. Which Potency did it give?
Answer: active: 7.57 µM

Question: Which Potency does the source give for COc1ccc(NC(=O)c2ccc(COCC(F)(F)F)cc2)cc1OC here?
Answer: inconclusive: 23.9 µM [inhibitor, single point]

Question: Which Potency does the source give for COc1ccc2cc(C3CC(c4cccs4)=NN3S(C)(=O)=O)c(Cl)nc2c1 (centres undefined) here?
Answer: inconclusive: 37.9 µM [inhibitor, partial curve, poor fit]

Question: c1ccc2c(c1)cnc1ccccc12 was tested. Which Potency did it give?
Answer: inconclusive: 21.3 µM [inhibitor, single point]

Question: With COC(=O)c1ccccc1OCC(=O)NC1CCCCC1 as the compound, how does the Potency read?
Answer: inconclusive: 21.3 µM [inhibitor, partial curve, poor fit]

Question: CCn1cc(C(=O)NCc2ccccc2)c(=O)c2cc(S(=O)(=O)N3CCCCCC3)ccc21 was tested. Which “activity change, negative = inhibition” value did it give?
Answer: inactive: 2.25%

Question: Fc1ccccc1-c1nc(-c2ccccc2)no1 was tested. Which Potency did it give?
Answer: active: 0.601 µM

Question: How did the Potency turn out when COc1ccc(NC(=O)c2ccc(COc3ccccc3OC)o2)cc1OC was run?
Answer: inconclusive: 16.9 µM [inhibitor, partial curve] and inconclusive: 23.9 µM [inhibitor, partial curve, poor fit]

Question: How did the Potency turn out when O=S(=O)(c1cccc2nsnc12)N1CCc2ccccc2C1 was run?
Answer: inconclusive: 23.9 µM [inhibitor, partial curve, poor fit]

Question: How did the Potency turn out when Cc1ccc(OCc2nc3ccccc3n2Cc2ccccc2Cl)cc1 was run?
Answer: inconclusive: 15.1 µM [inhibitor, partial curve]

Question: For CCOc1ccc(-c2cc(CCCC(=O)N3CCN(c4ccc(OC)cc4)CC3)no2)cc1, which Potency is on record?
Answer: inconclusive: 13.5 µM [inhibitor, partial curve]

Question: Which Potency does the source give for ClC(Cl)(c1nnnn1-c1ccccc1)c1nnnn1-c1ccccc1 here?
Answer: inconclusive: 33.8 µM [inhibitor, single point]

Question: Which “activity change, negative = inhibition” value does the source give for CN(CC(=O)Nc1ccccc1Br)C(=O)CNC(=O)c1cccs1 here?
Answer: inactive: -2.72%

Question: How did the Potency turn out when COc1ccc(NC(=O)C2Cc3ccccc3O/C2=N\O)cc1 (centres undefined) was run?
Answer: inconclusive: 37.9 µM [inhibitor, single point]

Question: How did the “activity change, negative = inhibition” value turn out when COc1ccc(/C=N/Nc2nc(-c3ccc(C)cc3)c(C#N)c(=O)[nH]2)cc1 was run?
Answer: inactive: 2.09%

Question: How did the Potency turn out when CSc1ccc(C2Nc3ccccc3-c3cc(C)nn32)cc1 (centres undefined) was run?
Answer: inconclusive: 26.9 µM [inhibitor, single point]
